These are yes or no findings as the source states them, for the method shown. Some binding calls cover weakened binding; strength is not graded here. Tags and fused reporters may be left off the sequences shown.
T1: EGFP-Bro1-V (1-704) (human) (UniProt Q9H3S7)
T1 sequence: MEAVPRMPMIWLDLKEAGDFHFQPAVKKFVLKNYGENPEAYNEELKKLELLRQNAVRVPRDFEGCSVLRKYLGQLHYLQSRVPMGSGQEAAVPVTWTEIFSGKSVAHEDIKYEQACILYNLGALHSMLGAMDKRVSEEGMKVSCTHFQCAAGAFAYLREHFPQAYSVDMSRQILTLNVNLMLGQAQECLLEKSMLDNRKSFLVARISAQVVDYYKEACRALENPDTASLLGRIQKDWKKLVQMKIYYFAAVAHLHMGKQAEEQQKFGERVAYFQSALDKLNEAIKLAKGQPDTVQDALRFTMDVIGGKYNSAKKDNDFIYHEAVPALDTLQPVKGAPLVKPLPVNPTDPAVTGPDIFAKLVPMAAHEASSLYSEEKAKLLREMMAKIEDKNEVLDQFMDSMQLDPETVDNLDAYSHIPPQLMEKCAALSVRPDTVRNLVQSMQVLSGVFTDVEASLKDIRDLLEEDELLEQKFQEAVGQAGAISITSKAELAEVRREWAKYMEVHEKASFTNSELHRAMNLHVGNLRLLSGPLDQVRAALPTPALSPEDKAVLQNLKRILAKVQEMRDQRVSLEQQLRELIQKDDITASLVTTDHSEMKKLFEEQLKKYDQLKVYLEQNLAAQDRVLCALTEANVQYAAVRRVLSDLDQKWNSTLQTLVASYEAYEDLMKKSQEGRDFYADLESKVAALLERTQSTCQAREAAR

Amino acid sequences for entries named in this document (tags omitted).
UniProt P62993: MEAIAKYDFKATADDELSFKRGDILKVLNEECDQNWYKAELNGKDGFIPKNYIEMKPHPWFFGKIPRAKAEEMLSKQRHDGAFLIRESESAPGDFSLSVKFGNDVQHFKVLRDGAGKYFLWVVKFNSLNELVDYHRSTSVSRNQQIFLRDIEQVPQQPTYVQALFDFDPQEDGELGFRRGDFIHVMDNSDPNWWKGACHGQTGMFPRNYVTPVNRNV

T2: EGFP-HD (705-1128) (human) (UniProt Q9H3S7)
T2 sequence: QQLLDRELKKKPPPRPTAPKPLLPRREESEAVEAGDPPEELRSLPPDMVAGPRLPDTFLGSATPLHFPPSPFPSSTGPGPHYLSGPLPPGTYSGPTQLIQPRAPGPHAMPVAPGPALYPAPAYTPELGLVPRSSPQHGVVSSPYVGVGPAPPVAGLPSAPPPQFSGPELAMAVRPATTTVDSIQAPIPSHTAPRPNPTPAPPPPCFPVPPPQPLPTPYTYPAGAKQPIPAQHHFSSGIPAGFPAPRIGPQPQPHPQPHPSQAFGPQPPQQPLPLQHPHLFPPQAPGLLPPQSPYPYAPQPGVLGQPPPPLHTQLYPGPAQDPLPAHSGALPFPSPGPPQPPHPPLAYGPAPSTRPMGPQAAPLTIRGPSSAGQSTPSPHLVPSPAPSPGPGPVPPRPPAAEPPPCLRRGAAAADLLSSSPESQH

T3: EGFP-VHD (401-1128) (human) (UniProt Q9H3S7)
T3 sequence: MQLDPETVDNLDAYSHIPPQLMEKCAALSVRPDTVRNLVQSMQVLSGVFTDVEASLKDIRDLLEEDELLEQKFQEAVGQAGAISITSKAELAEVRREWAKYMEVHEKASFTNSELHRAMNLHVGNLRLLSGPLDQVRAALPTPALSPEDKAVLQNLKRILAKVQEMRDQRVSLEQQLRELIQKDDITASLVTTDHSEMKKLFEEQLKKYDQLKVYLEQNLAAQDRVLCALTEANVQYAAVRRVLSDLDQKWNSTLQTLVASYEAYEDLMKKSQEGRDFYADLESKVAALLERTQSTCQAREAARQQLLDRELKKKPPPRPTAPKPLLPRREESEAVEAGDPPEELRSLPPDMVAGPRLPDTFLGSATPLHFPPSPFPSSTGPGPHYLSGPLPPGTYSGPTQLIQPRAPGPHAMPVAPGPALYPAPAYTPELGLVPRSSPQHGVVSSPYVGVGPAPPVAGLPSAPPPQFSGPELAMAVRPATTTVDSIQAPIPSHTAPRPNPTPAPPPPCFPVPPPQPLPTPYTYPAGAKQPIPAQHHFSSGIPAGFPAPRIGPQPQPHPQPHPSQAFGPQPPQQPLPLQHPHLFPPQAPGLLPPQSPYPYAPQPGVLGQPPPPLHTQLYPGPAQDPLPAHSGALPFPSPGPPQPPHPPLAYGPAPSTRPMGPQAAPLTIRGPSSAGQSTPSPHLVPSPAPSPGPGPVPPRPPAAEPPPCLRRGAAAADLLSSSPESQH

T4: EGFP-PTPc (1171-1475) (human) (UniProt Q9H3S7)
T4 sequence: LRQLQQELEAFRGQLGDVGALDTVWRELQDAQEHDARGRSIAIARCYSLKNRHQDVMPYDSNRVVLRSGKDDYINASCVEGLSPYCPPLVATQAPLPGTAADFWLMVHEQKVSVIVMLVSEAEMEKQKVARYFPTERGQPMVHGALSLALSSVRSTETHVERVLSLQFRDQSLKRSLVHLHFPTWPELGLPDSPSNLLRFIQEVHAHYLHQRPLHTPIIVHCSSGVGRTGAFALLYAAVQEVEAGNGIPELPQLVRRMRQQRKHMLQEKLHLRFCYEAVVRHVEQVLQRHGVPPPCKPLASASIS

T5: EGFP-V-domain (401-700) (human) (UniProt Q9H3S7)
T5 sequence: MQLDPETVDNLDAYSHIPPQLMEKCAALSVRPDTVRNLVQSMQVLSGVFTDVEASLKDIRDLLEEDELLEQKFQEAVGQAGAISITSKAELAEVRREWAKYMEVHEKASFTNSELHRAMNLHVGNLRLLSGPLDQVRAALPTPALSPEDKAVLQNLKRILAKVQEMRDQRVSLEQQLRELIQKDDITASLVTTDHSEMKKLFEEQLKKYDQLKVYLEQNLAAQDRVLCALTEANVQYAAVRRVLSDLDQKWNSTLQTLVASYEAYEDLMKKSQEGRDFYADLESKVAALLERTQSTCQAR


Assays:
Assay in all cases: far-Western, overlay or dot blot; lysates of HEK293T cells expressing HD-PTP mutants separated by SDS-PAGE and blotted on PVDF; overlay with 50 ng/ml GST-Grb2 or 100 ng/ml GST-GrpL overnight at 4°C; detected with anti-GST; only the binder purified
[1] = biological target: T1, EGFP-Bro1-V (1-704) (human)
[2] = biological target: T2, EGFP-HD (705-1128) (human)
[3] = biological target: T3, EGFP-VHD (401-1128) (human)
[4] = biological target: T4, EGFP-PTPc (1171-1475) (human)
[5] = biological target: EGFP-ΔPEST (HD-PTP lacking amino acid residues 1508-1595) (human) (UniProt Q9H3S7)
[6] = biological target: T5, EGFP-V-domain (401-700) (human)

binding [1]	binding [2]	binding [3]	binding [4]	binding [5]	binding [6]	Molecule
no binding (tested: 50 ng/ml GST-Grb2)	binds	binds	no binding (tested: 50 ng/ml GST-Grb2)			GST-Grb2 (from UniProt P62993 1-217)
no binding (tested: 100 ng/ml GST-GrpL)	binds	binds	no binding (tested: 100 ng/ml GST-GrpL)	binds	no binding (tested: 100 ng/ml GST-GrpL)	GST-GrpL (protein, UniProt O75791 1-330) MEAVAKFDFTASGEDELSFHTGDVLKILSNQEEWFKAELGSQEGYVPKNFIDIQFPKWFHEGLSRHQAENLLMGKEVGFFIIRASQSSPGDFSISVRHEDDVQHFKVMRDNKGNYFLWTEKFPSLNKLVDYYRTNSISRQKQIFLRDRTREDQGHRGNSLDRRSQGGPHLSGAVGEEIRPSMNRKLSDHPPTLPLQQHQHQPQPPQYAPAPQQLQQPPQQRYLQHHHFHQERRGGSLDINDGHCGTGLGSEMNAALMHRRHTDPVQLQAAGRVRWARALYDFEALEDDELGFHSGEVVEVLDSSNPSWWTGRLHNKLGLFPANYVAPMTR
